{"source": "the supplement of paper PMC8728848", "binders": {"B1": {"name": "AFL (Aspergillus fumigatus), Q4WW81 (protein)", "chain": "STPGAQQVLFRTGIAAVNLTNHLRVYFQDVYGSIRESLYEGSWANGTEKNVIGNAKLGSPVAATSKELKHIRVYTLTEGNTLQEFAYDSGTGWYNGGLGGAKFQVAPYSRIAAVFLAGTDALQLRIYAQKPDNTIQEYMWNGDGWKEGTNLGGALPGTGIGATSFRYTDYNGPSIRIWFQTDDLKLVQRAYDPHKGWYPDLVTIFDRAPPRTAIAATSFGAGNSSIYMRIYFVNSDNTIWQVCWDHGKGYHDKGTITPVIQGSEVAIISWGSFANNGPDLRLYFQNGTYISAVSEWVWNRAHGSQLGRSALPPA"}}, "experiment_in_all_cases": "glycan array binding signal (z-score within array); higher = stronger binding", "settings_in_all_cases": "glycan notation: IUPAC condensed, linker removed", "key": {"[1]": {"target": "Gal(a1-4)Gal(b1-4)GlcNAc(b1-2)Man(a1-3)[Gal(a1-4)Gal(b1-4)GlcNAc(b1-2)Man(a1-6)]Man(b1-4)GlcNAc(b1-4)GlcNAc", "how_it_was_run": "(§1)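 Arrays were curated from the Consortium for Functional Glycomics database, 3228 in total, and kept only where the protein sequence was available. Binding is expressed as a within-array Z-score. This score was averaged across arrays of the same protein sequence at different concentrations or buffers and across linkers, and negative values can be read as non-binding.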"}, "[2]": {"target": "Gal(a1-4)Gal(b1-4)GlcNAc(b1-3)Gal(b1-4)Glc", "how_it_was_run": "as §1"}, "Gal(a1-4)GlcNAc": {"target": "Gal(a1-4)GlcNAc", "how_it_was_run": "as §1"}, "Gal(a1-6)Glc": {"target": "Gal(a1-6)Glc", "how_it_was_run": "as §1"}, "Gal(b1-2)Gal": {"target": "Gal(b1-2)Gal", "how_it_was_run": "as §1"}, "Gal(b1-3)Gal": {"target": "Gal(b1-3)Gal", "how_it_was_run": "as §1"}, "Gal(b1-3)Gal(b1-4)GlcNAc": {"target": "Gal(b1-3)Gal(b1-4)GlcNAc", "how_it_was_run": "as §1"}, "[3]": {"target": "Gal(b1-3)Gal(b1-4)GlcNAc(b1-2)Man(a1-3)[Gal(b1-3)Gal(b1-4)GlcNAc(b1-2)Man(a1-6)]Man(b1-4)GlcNAc(b1-4)GlcNAc", "how_it_was_run": "as §1"}, "Gal(b1-3)GalNAc": {"target": "Gal(b1-3)GalNAc", "how_it_was_run": "as §1"}, "[4]": {"target": "Gal(b1-3)GalNAc(a1-3)[Fuc(a1-2)]Gal(b1-4)Glc", "how_it_was_run": "as §1"}, "[5]": {"target": "Gal(b1-3)GalNAc(a1-3)[Fuc(a1-2)]Gal(b1-4)GlcNAc", "how_it_was_run": "as §1"}, "[6]": {"target": "Gal(b1-3)GalNAc(b1-3)Gal(a1-4)Gal(b1-4)Glc", "how_it_was_run": "as §1"}, "[7]": {"target": "Gal(b1-3)GalNAc(b1-4)Gal(b1-4)Glc", "how_it_was_run": "as §1"}, "[8]": {"target": "Gal(b1-3)GalNAc(b1-4)[Neu5Ac(a2-3)]Gal(b1-4)Glc", "how_it_was_run": "as §1"}, "Gal(b1-3)GlcNAc": {"target": "Gal(b1-3)GlcNAc", "how_it_was_run": "as §1"}, "[9]": {"target": "Gal(b1-3)GlcNAc(a1-6)Gal(b1-4)GlcNAc", "how_it_was_run": "as §1"}, "[10]": {"target": "Gal(b1-3)GlcNAc(b1-2)Man(a1-3)[Gal(b1-3)GlcNAc(b1-2)Man(a1-6)]Man(b1-4)GlcNAc(b1-4)GlcNAc", "how_it_was_run": "as §1"}, "[11]": {"target": "Gal(b1-3)GlcNAc(b1-2)Man(a1-3)[Gal(b1-3)GlcNAc(b1-2)Man(a1-6)]Man(b1-4)GlcNAc(b1-4)[Fuc(a1-6)]GlcNAc", "how_it_was_run": "as §1"}, "[12]": {"target": "Gal(b1-3)GlcNAc(b1-2)[Gal(b1-3)GlcNAc(b1-6)]Man(a1-6)[Gal(b1-3)GlcNAc(b1-2)Man(a1-3)]Man(b1-4)GlcNAc(b1-4)GlcNAc", "how_it_was_run": "as §1"}, "[13]": {"target": "Gal(b1-3)GlcNAc(b1-3)Gal(b1-3)GlcNAc", "how_it_was_run": "as §1"}, "[14]": {"target": "Gal(b1-3)GlcNAc(b1-3)Gal(b1-4)Glc", "how_it_was_run": "as §1"}, "[15]": {"target": "Gal(b1-3)GlcNAc(b1-3)Gal(b1-4)GlcNAc", "how_it_was_run": "as §1"}, "[16]": {"target": "Gal(b1-3)GlcNAc(b1-3)Gal(b1-4)GlcNAc(b1-6)[Gal(b1-3)GlcNAc(b1-3)]Gal(b1-4)Glc", "how_it_was_run": "as §1"}, "[17]": {"target": "Gal(b1-3)GlcNAc(b1-3)Gal(b1-4)[Fuc(a1-3)]GlcNAc(b1-6)[Gal(b1-3)GlcNAc(b1-3)]Gal(b1-4)Glc", "how_it_was_run": "as §1"}, "[18]": {"target": "Gal(b1-3)GlcNAc(b1-3)GalNAc", "how_it_was_run": "as §1"}, "[19]": {"target": "Gal(b1-3)GlcNAc(b1-6)Gal(b1-4)GlcNAc", "how_it_was_run": "as §1"}, "[20]": {"target": "Gal(b1-3)[Fuc(a1-4)]GlcNAc", "how_it_was_run": "as §1"}, "[21]": {"target": "Gal(b1-3)[Fuc(a1-4)]GlcNAc(b1-2)Man(a1-3)[Gal(b1-3)[Fuc(a1-4)]GlcNAc(b1-2)Man(a1-6)]Man(b1-4)GlcNAc(b1-4)GlcNAc", "how_it_was_run": "as §1"}, "[22]": {"target": "Gal(b1-3)[Fuc(a1-4)]GlcNAc(b1-2)Man(a1-3)[Gal(b1-3)[Fuc(a1-4)]GlcNAc(b1-2)Man(a1-6)]Man(b1-4)GlcNAc(b1-4)[Fuc(a1-6)]GlcNAc", "how_it_was_run": "as §1"}, "[23]": {"target": "Gal(b1-3)[Fuc(a1-4)]GlcNAc(b1-3)Gal(b1-3)[Fuc(a1-4)]GlcNAc", "how_it_was_run": "as §1"}, "[24]": {"target": "Gal(b1-3)[Fuc(a1-4)]GlcNAc(b1-3)Gal(b1-4)GlcNAc", "how_it_was_run": "as §1"}, "[25]": {"target": "Gal(b1-3)[Fuc(a1-4)]GlcNAc(b1-3)Gal(b1-4)[Fuc(a1-3)]GlcNAc", "how_it_was_run": "as §1"}, "[26]": {"target": "Gal(b1-3)[GlcNAc(b1-6)]GalNAc", "how_it_was_run": "as §1"}, "[27]": {"target": "Gal(b1-3)[Neu5Ac(a2-6)]GalNAc", "how_it_was_run": "as §1"}, "[28]": {"target": "Gal(b1-3)[Neu5Ac(a2-6)]GlcNAc(b1-6)Gal(b1-4)Glc", "how_it_was_run": "as §1"}, "[29]": {"target": "Gal(b1-3)[Neu5Ac(b2-6)]GalNAc", "how_it_was_run": "as §1"}, "Gal(b1-4)Gal": {"target": "Gal(b1-4)Gal", "how_it_was_run": "as §1"}}, "note": "Some of the results follow.", "data": [{"binder": "B1", "values": [{"measurement": "glycan array binding signal (z-score)", "setting": "[1]", "result": -0.385}, {"measurement": "glycan array binding signal (z-score)", "setting": "[2]", "result": -0.381}, {"measurement": "glycan array binding signal (z-score)", "setting": "Gal(a1-4)GlcNAc", "result": -0.385}, {"measurement": "glycan array binding signal (z-score)", "setting": "Gal(a1-6)Glc", "result": -0.389}, {"measurement": "glycan array binding signal (z-score)", "setting": "Gal(b1-2)Gal", "result": -0.383}, {"measurement": "glycan array binding signal (z-score)", "setting": "Gal(b1-3)Gal", "result": -0.394}, {"measurement": "glycan array binding signal (z-score)", "setting": "Gal(b1-3)Gal(b1-4)GlcNAc", "result": -0.388}, {"measurement": "glycan array binding signal (z-score)", "setting": "[3]", "result": -0.367}, {"measurement": "glycan array binding signal (z-score)", "setting": "Gal(b1-3)GalNAc", "result": -0.383}, {"measurement": "glycan array binding signal (z-score)", "setting": "[4]", "result": -0.379}, {"measurement": "glycan array binding signal (z-score)", "setting": "[5]", "result": -0.385}, {"measurement": "glycan array binding signal (z-score)", "setting": "[6]", "result": -0.372}, {"measurement": "glycan array binding signal (z-score)", "setting": "[7]", "result": -0.375}, {"measurement": "glycan array binding signal (z-score)", "setting": "[8]", "result": -0.381}, {"measurement": "glycan array binding signal (z-score)", "setting": "Gal(b1-3)GlcNAc", "result": -0.39}, {"measurement": "glycan array binding signal (z-score)", "setting": "[9]", "result": -0.384}, {"measurement": "glycan array binding signal (z-score)", "setting": "[10]", "result": -0.382}, {"measurement": "glycan array binding signal (z-score)", "setting": "[11]", "result": 0.632}, {"measurement": "glycan array binding signal (z-score)", "setting": "[12]", "result": -0.385}, {"measurement": "glycan array binding signal (z-score)", "setting": "[13]", "result": -0.383}, {"measurement": "glycan array binding signal (z-score)", "setting": "[14]", "result": -0.386}, {"measurement": "glycan array binding signal (z-score)", "setting": "[15]", "result": -0.383}, {"measurement": "glycan array binding signal (z-score)", "setting": "[16]", "result": -0.382}, {"measurement": "glycan array binding signal (z-score)", "setting": "[17]", "result": -0.124}, {"measurement": "glycan array binding signal (z-score)", "setting": "[18]", "result": -0.391}, {"measurement": "glycan array binding signal (z-score)", "setting": "[19]", "result": -0.387}, {"measurement": "glycan array binding signal (z-score)", "setting": "[20]", "result": 2.16}, {"measurement": "glycan array binding signal (z-score)", "setting": "[21]", "result": -0.358}, {"measurement": "glycan array binding signal (z-score)", "setting": "[22]", "result": -0.059}, {"measurement": "glycan array binding signal (z-score)", "setting": "[23]", "result": 1.72}, {"measurement": "glycan array binding signal (z-score)", "setting": "[24]", "result": 0.317}, {"measurement": "glycan array binding signal (z-score)", "setting": "[25]", "result": 2.7}, {"measurement": "glycan array binding signal (z-score)", "setting": "[26]", "result": -0.383}, {"measurement": "glycan array binding signal (z-score)", "setting": "[27]", "result": -0.38}, {"measurement": "glycan array binding signal (z-score)", "setting": "[28]", "result": -0.386}, {"measurement": "glycan array binding signal (z-score)", "setting": "[29]", "result": -0.386}, {"measurement": "glycan array binding signal (z-score)", "setting": "Gal(b1-4)Gal", "result": -0.38}]}]}
